# According to patent US20250270339A1 (Alector, published 2025):
# T1: huTfR Apical Domain-Avi-His (human, biotin on the Avi tag (BirA) where captured on streptavidin)
# T1 construct: also called huTfR apical Avi-His; hTfR Apical
# T1 chain: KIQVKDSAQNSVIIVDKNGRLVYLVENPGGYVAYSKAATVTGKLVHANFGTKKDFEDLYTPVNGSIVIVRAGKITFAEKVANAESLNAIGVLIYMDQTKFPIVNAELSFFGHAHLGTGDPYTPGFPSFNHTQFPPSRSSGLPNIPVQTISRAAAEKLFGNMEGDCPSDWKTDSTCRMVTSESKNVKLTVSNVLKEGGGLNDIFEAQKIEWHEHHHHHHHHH
# T2: Cyno TfR ECD Avi-His (cynomolgus macaque, UniProt Q5RDH6 89-760 (Pongo abelii entry), biotin on the Avi tag (BirA) where captured on streptavidin)
# T2 construct: also called Cyno TfR Avi-His; cyno TfR Avi-His
# T2 chain: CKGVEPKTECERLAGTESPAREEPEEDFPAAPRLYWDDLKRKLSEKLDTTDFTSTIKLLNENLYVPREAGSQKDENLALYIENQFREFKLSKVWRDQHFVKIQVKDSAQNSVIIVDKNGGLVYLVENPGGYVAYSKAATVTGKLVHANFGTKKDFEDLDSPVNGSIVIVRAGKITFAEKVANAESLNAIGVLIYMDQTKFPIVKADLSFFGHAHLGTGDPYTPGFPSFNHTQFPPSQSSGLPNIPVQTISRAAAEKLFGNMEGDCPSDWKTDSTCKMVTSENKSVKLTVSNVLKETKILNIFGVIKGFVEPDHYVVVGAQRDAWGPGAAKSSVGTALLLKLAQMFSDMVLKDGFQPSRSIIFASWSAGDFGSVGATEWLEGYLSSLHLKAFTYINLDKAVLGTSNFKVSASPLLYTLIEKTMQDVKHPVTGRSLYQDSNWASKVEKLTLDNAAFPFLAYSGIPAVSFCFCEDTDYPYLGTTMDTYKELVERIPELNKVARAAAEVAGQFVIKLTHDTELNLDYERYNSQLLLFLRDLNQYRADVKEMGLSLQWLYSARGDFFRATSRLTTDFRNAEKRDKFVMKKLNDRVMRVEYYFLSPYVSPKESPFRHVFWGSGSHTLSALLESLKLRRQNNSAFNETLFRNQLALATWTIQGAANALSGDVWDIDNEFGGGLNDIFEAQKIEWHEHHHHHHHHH
# How the values were obtained:
# [1] = biological target: T3, Mouse TfR (muTfR) ECD Avi-His (mouse, UniProt Q62351, biotin on the Avi tag (BirA) where captured on streptavidin); assay: ELISA OD450
# T3 construct: also called MuTfR Avi-His
# [2] = biological target: T1, huTfR Apical Domain-Avi-His; assay: ELISA OD450
# [3] = biological target: T2, Cyno TfR ECD Avi-His; assay: ELISA OD450
# [4] = biological target: T4, Full length human TfR on CHO cells (human, UniProt P02786); assay: FACS MFI
# T4 construct: also called CHO + huTfR; CHO + hTfR
# T4 sequence (P02786 whole entry): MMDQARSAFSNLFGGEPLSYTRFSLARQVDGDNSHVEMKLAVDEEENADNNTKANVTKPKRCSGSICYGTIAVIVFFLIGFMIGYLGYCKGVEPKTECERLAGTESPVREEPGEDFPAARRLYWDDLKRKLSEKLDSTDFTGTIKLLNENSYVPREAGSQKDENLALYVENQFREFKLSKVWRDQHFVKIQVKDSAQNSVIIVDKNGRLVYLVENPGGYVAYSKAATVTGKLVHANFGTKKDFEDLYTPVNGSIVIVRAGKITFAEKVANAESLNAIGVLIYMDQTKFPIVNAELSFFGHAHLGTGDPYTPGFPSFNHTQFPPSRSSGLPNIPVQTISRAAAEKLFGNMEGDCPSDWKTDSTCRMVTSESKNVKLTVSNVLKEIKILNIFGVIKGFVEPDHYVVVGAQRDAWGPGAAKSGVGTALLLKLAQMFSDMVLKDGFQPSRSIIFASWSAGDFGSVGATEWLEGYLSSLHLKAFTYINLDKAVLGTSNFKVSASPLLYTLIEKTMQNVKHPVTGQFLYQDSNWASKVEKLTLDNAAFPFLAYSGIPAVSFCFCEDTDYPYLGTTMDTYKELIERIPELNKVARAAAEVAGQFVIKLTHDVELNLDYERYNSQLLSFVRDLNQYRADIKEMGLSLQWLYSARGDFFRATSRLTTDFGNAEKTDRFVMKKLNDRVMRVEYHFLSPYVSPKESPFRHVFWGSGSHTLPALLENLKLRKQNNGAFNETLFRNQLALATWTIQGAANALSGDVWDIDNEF
binder,measurement,setting,value
"TfR15 2+1 anti-TfR bispecific antibody (bispecific antibody, human IgG1, kappa, 2+1; also called TfR15 parental; parental TfR15) heavy 1: EVRLLESGGGLVQPGGSLRLSCAASGFTFSNYAMGWVRQAPGKGLEWVSAISGSGGSTYYADSVKGRFTTSRDDSKNALYLQMNSLRAEDTAVYYCARGGPGWYAADVWGQGTTVTVSSASTKGPSVFPLAPSSKSTSGGTAALGCLVKDYFPEPVTVSWNSGALTSGVHTFPAVLQSSGLYSLSSVVTVPSSSLGTQTYICNVNHKPSNTKVDKKV[here human IgG1 Fc with changes without letters]GGGGSGGGGSGGGGSQVQLQQPGSELVRPGASVKLSCKASGYTFTSYWMHWVKQRPGQGLEWIGNIYPGSGSSNYDEKFKSKATLTVDTSSSTAYMQLNSLTSEDSAVYYCTRSSYYGNFDTMDNWGQGTSVTVSSGGSEGKSSGSGSESKSTGGSQIVLTQSPAIMSASPGEKVTMTCSASSSIRYMNWYQQKPVTSPKRWIYDTSTLASGVPARFSGSGSGTSYSLTISSMEAEDAATYYCHQRSSYPWTFGGGTKLEIK heavy 2: EVRLLESGGGLVQPGGSLRLSCAASGFTFSNYAMGWVRQAPGKGLEWVSAISGSGGSTYYADSVKGRFTTSRDDSKNALYLQMNSLRAEDTAVYYCARGGPGWYAADVWGQGTTVTVSS[here human IgG1 constant region with changes without letters] light: DIQMTQSPSSLSASVGDRVTITCRASQSISSYLNWYQQKPGKAPKLLIYAASSLQSGVPSRFSGSGSGTDFTLTISSLQPEDFATYYCQQADLPAFAFGGGTKVEIKRTVAAPSVFIFPPSDEQLKSGTASVVCLLNNFYPREAKVQWKVDNALQSGNSQESVTEQDSKDSTYSLSSTLTLSKADYEKHKVYACEVTHQGLSSPVTKSFNRGEC",fold over isotype control,[1],1 fold
same,fold over isotype control,[2],40 fold
same,fold over isotype control,[3],28 fold
same,fold over CHO parental,[4],875 fold
"TfR12 2+1 anti-TfR bispecific antibody (bispecific antibody, human IgG1, kappa, 2+1; also called parental TfR12 scFv) heavy 1: EVRLLESGGGLVQPGGSLRLSCAASGFTFSNYAMGWVRQAPGKGLEWVSAISGSGGSTYYADSVKGRFTTSRDDSKNALYLQMNSLRAEDTAVYYCARGGPGWYAADVWGQGTTVTVSSASTKGPSVFPLAPSSKSTSGGTAALGCLVKDYFPEPVTVSWNSGALTSGVHTFPAVLQSSGLYSLSSVVTVPSSSLGTQTYICNVNHKPSNTKVDKKV[here human IgG1 Fc with changes without letters]GGGGSGGGGSGGGGSQVQLQQPGSELVRPGASVKLSCKASGYTFTSYWMHWVKQRPGQGLEWIGNIYPGSGSSNYDEKFKNKATLTVDTSSNTAYMQLSSLTSEDSAVYYCTRSSYYGNFDTMDNWGQGTSVTVSSGGSEGKSSGSGSESKSTGGSQIVLTQSPAIMSASPGEKVTMTCSASSSIRYMNWYQQKPVTSPKRWIYDTSTLASGVPARFSGSGSGTSYSLTISSMEAEDAATYYCHQRSSYPWTFGGGTKLEIK heavy 2: EVRLLESGGGLVQPGGSLRLSCAASGFTFSNYAMGWVRQAPGKGLEWVSAISGSGGSTYYADSVKGRFTTSRDDSKNALYLQMNSLRAEDTAVYYCARGGPGWYAADVWGQGTTVTVSS[here human IgG1 constant region with changes without letters] light: DIQMTQSPSSLSASVGDRVTITCRASQSISSYLNWYQQKPGKAPKLLIYAASSLQSGVPSRFSGSGSGTDFTLTISSLQPEDFATYYCQQADLPAFAFGGGTKVEIKRTVAAPSVFIFPPSDEQLKSGTASVVCLLNNFYPREAKVQWKVDNALQSGNSQESVTEQDSKDSTYSLSSTLTLSKADYEKHKVYACEVTHQGLSSPVTKSFNRGEC",fold over isotype control,[1],1 fold
same,fold over isotype control,[2],40 fold
same,fold over isotype control,[3],36 fold
same,fold over CHO parental,[4],152 fold
"TfR19 2+1 anti-TfR bispecific antibody (bispecific antibody, human IgG1, kappa, 2+1) heavy 1: EVRLLESGGGLVQPGGSLRLSCAASGFTFSNYAMGWVRQAPGKGLEWVSAISGSGGSTYYADSVKGRFTTSRDDSKNALYLQMNSLRAEDTAVYYCARGGPGWYAADVWGQGTTVTVSSASTKGPSVFPLAPSSKSTSGGTAALGCLVKDYFPEPVTVSWNSGALTSGVHTFPAVLQSSGLYSLSSVVTVPSSSLGTQTYICNVNHKPSNTKVDKKV[here human IgG1 Fc with changes without letters]GGGGSGGGGSGGGGSQVQLQQPGSELVRPGASVKLSCKASGYTFTSYWTHWVKQRPGQGLEWIGNIYPGSGSSNYDEKFKSKATLTVDTSSSTAYMQLSSLTSEDSAVYFCTRSSYYGNFDTMDNWGQGTSVTVSSGGSEGKSSGSGSESKSTGGSQIVLTQSPAIMSASPGEKVTMTCSASSSIRYMNWYQQKPVTSPKRWIYDTSTLASGVPARFSGSGSGTSYSLTISSMEAEDAATYYCHQRSSYPWTFGGGTKLEIK heavy 2: EVRLLESGGGLVQPGGSLRLSCAASGFTFSNYAMGWVRQAPGKGLEWVSAISGSGGSTYYADSVKGRFTTSRDDSKNALYLQMNSLRAEDTAVYYCARGGPGWYAADVWGQGTTVTVSS[here human IgG1 constant region with changes without letters] light: DIQMTQSPSSLSASVGDRVTITCRASQSISSYLNWYQQKPGKAPKLLIYAASSLQSGVPSRFSGSGSGTDFTLTISSLQPEDFATYYCQQADLPAFAFGGGTKVEIKRTVAAPSVFIFPPSDEQLKSGTASVVCLLNNFYPREAKVQWKVDNALQSGNSQESVTEQDSKDSTYSLSSTLTLSKADYEKHKVYACEVTHQGLSSPVTKSFNRGEC",fold over isotype control,[1],1 fold
same,fold over isotype control,[2],41 fold
same,fold over isotype control,[3],30 fold
same,fold over CHO parental,[4],277 fold
"TfR27 2+1 anti-TfR bispecific antibody (bispecific antibody, human IgG1, kappa, 2+1) heavy 1: EVRLLESGGGLVQPGGSLRLSCAASGFTFSNYAMGWVRQAPGKGLEWVSAISGSGGSTYYADSVKGRFTTSRDDSKNALYLQMNSLRAEDTAVYYCARGGPGWYAADVWGQGTTVTVSSASTKGPSVFPLAPSSKSTSGGTAALGCLVKDYFPEPVTVSWNSGALTSGVHTFPAVLQSSGLYSLSSVVTVPSSSLGTQTYICNVNHKPSNTKVDKKV[here human IgG1 Fc with changes without letters]GGGGSGGGGSGGGGSQVQLQQPGSELVRPGASVKLSCKASGYTFTSYWMHWVKQRPGQGLEWIGNIYPGTGSTNYDEKFKSKATLTVDTSSSTAYMQLSSLTSEDSAVYYCTRSSYYGNFDTMDYWGQGTSVTVSSGGSEGKSSGSGSESKSTGGSQIFLTQSPAIMSASPGERVTMTCSASSSIRYMNWYQQKPGTSPKRWIYDTSELASGVPARFTGSGSGTSYSLTISSMEAEDAATYYCHQRSGYPWTFGGGTKLEIK heavy 2: EVRLLESGGGLVQPGGSLRLSCAASGFTFSNYAMGWVRQAPGKGLEWVSAISGSGGSTYYADSVKGRFTTSRDDSKNALYLQMNSLRAEDTAVYYCARGGPGWYAADVWGQGTTVTVSS[here human IgG1 constant region with changes without letters] light: DIQMTQSPSSLSASVGDRVTITCRASQSISSYLNWYQQKPGKAPKLLIYAASSLQSGVPSRFSGSGSGTDFTLTISSLQPEDFATYYCQQADLPAFAFGGGTKVEIKRTVAAPSVFIFPPSDEQLKSGTASVVCLLNNFYPREAKVQWKVDNALQSGNSQESVTEQDSKDSTYSLSSTLTLSKADYEKHKVYACEVTHQGLSSPVTKSFNRGEC",fold over isotype control,[1],1 fold
same,fold over isotype control,[2],42 fold
same,fold over isotype control,[3],32 fold
same,fold over CHO parental,[4],309 fold
"TfR13 2+1 anti-TfR bispecific antibody (bispecific antibody, human IgG1, kappa, 2+1) heavy 1: EVRLLESGGGLVQPGGSLRLSCAASGFTFSNYAMGWVRQAPGKGLEWVSAISGSGGSTYYADSVKGRFTTSRDDSKNALYLQMNSLRAEDTAVYYCARGGPGWYAADVWGQGTTVTVSSASTKGPSVFPLAPSSKSTSGGTAALGCLVKDYFPEPVTVSWNSGALTSGVHTFPAVLQSSGLYSLSSVVTVPSSSLGTQTYICNVNHKPSNTKVDKKV[here human IgG1 Fc with changes without letters]GGGGSGGGGSGGGGSDVKLVESGGGLVKPGGSLKLSCAASGFTFSSYTMSWVRQTPEKRLEWVATISSGGSYTYFPDSVKGRFTISRDNAKNTLYLQMSSLKSEDTAIYYCTRAHYYAYDYWGQGTTLTVSSGGSEGKSSGSGSESKSTGGSDILLTQSPAILSVSPGERVSFSCRASQSIGTSIHWYQQRTNGSPRLLIKYASGSISGIPSRFSGSGSGTDFTLSINSVESEDIADYYCQQSNSWPTSTFGAGTKLELK heavy 2: EVRLLESGGGLVQPGGSLRLSCAASGFTFSNYAMGWVRQAPGKGLEWVSAISGSGGSTYYADSVKGRFTTSRDDSKNALYLQMNSLRAEDTAVYYCARGGPGWYAADVWGQGTTVTVSS[here human IgG1 constant region with changes without letters] light: DIQMTQSPSSLSASVGDRVTITCRASQSISSYLNWYQQKPGKAPKLLIYAASSLQSGVPSRFSGSGSGTDFTLTISSLQPEDFATYYCQQADLPAFAFGGGTKVEIKRTVAAPSVFIFPPSDEQLKSGTASVVCLLNNFYPREAKVQWKVDNALQSGNSQESVTEQDSKDSTYSLSSTLTLSKADYEKHKVYACEVTHQGLSSPVTKSFNRGEC",fold over isotype control,[1],1 fold
same,fold over isotype control,[2],8 fold
same,fold over isotype control,[3],1 fold
same,fold over CHO parental,[4],17 fold
